The values that follow come from the supplement of paper PMC4967469.

Compound in this assay: C=CC(=O)Nc1cccc(Nc2nc(NC3CCC(N(C)C)CC3)nc3c2ncn3C(C)C)c1 [WZ3105]
As to the kind of experiment: Viability of human cancer cell lines after 72 h of drug (GDSC screen). The note with it: top dose inferred. The procedure: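 Human cancer cell lines in 384-well plates, medium with 10% serum, drug for 72 h over a 256-fold dose range (nine 2-fold or five 4-fold steps up to the top dose). Adherent lines were fixed and stained with the nucleic acid dye Syto60, suspension lines read with resazurin; signal relative to control wells, capped at 0 and 100%. One two-parameter sigmoid per drug and line, fitted in a mixed model over all curves with the slope shared within a line.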

A lower IC50 marks a more sensitive line; fits outside the tested doses are given as limits. For AUC the same curve is integrated over the 256-fold range of doses and scaled to a fraction; values near 1 show little effect. Where the top dose is marked as inferred, it is not printed in the source and was worked back from the curve model.

What is called IC50 is the midpoint of a concentration-inhibition curve. With “OACp4C (oesophagus, adherent, top dose 1.28 µM)”, the AUC came out at 0.605 and the IC50 was 165 nM.
Take “OAW-28 (ovary, adherent, top dose 1.28 µM)”: the AUC was 0.811 and the IC50 was found to be 915 nM.
Take “OAW-42 (ovary, adherent, top dose 1.28 µM)”: the AUC was 0.913 and the IC50 is above 1280 nM.
For “OC-314 (ovary, adherent, top dose 1.28 µM)” the same measures were 0.828 and 644 nM.
In the case of “OCI-AML2 (acute myeloid leukaemia, suspension, top dose 1.28 µM)”, the AUC stood at 0.693 and the IC50 was found to be 237 nM.
As for “OCI-AML3 (acute myeloid leukaemia, suspension, top dose 1.28 µM)”, the AUC was 0.508 and the IC50 turned out to be 83.8 nM.
On the same counts, the results for “OCI-AML5 (acute myeloid leukaemia, suspension, top dose 1.28 µM)” are 0.545 and 105 nM.
For “OCI-LY-19 (B-cell lymphoma, suspension, top dose 1.28 µM)” the same measures were 0.582 and 132 nM.
As for “OCI-M1 (acute myeloid leukaemia, suspension, top dose 1.28 µM)”, the AUC was 0.799 and the IC50 stood at 453 nM.
Regarding “OCUB-M (breast, adherent, top dose 1.28 µM)”, the AUC amounted to 0.559 and the IC50 amounted to 113 nM.
For “OCUM-1 (stomach, adherent, top dose 1.28 µM)” the same measures were 0.915 and above 1280 nM.
On the same counts, the results for “OE19 (oesophagus, adherent, top dose 1.28 µM)” are 0.957 and above 1280 nM.
On the same counts, the results for “OE21 (oesophagus, adherent, top dose 1.28 µM)” are 0.89 and above 1280 nM.
On to “OE33 (oesophagus, adherent, top dose 1.28 µM)”, for which the AUC stood at 0.91 and the IC50 is above 1280 nM.
For “OMC-1 (cervix, adherent, top dose 1.28 µM)” the same measures were 0.979 and above 1280 nM.
“ONS-76 (medulloblastoma, adherent, top dose 1.28 µM)”: the AUC worked out at 0.556 and the IC50 came out at 115 nM.
For “OPM-2 (myeloma, suspension, top dose 1.28 µM)” the same measures were 0.941 and above 1280 nM.
As for “OS-RC-2 (kidney, adherent, top dose 1.28 µM)”, the AUC amounted to 0.921 and the IC50 was above 1280 nM.
For “OSC-19 (head and neck, adherent, top dose 1.28 µM)” the same measures were 0.93 and above 1280 nM.
As to “OSC-20 (head and neck, adherent, top dose 1.28 µM)”, the AUC came out at 0.938 and the IC50 is above 1280 nM.
For “OV-7 (ovary, adherent, top dose 1.28 µM)” the same measures were 0.907 and above 1280 nM.
With “OV-17R (ovary, adherent, top dose 1.28 µM)”, the AUC is 0.973 and the IC50 is above 1280 nM.
For “OV-56 (ovary, adherent, top dose 1.28 µM)” the same measures were 0.972 and above 1280 nM.
For “OV-90 (ovary, adherent, top dose 1.28 µM)” the same measures were 0.826 and 1090 nM.
On the same counts, the results for “OVCA420 (ovary, adherent, top dose 1.28 µM)” are 0.977 and above 1280 nM.
Consider “OVCA433 (ovary, adherent, top dose 1.28 µM)”, for which the AUC was found to be 0.911 and the IC50 is above 1280 nM.
On the same counts, the results for “OVCAR-3 (ovary, adherent, top dose 1.28 µM)” are 0.987 and above 1280 nM.
For the cell line “OVCAR-4 (ovary, adherent, top dose 1.28 µM)”, the AUC turned out to be 0.852 and the IC50 was above 1280 nM.
In the case of “OVCAR-5 (ovary, adherent, top dose 1.28 µM)”, the AUC was found to be 0.703 and the IC50 is 340 nM.
Turning to “OVCAR-8 (ovary, adherent, top dose 1.28 µM)”, the AUC was 0.868 and the IC50 is 968 nM.
As for “OVISE (ovary, adherent, top dose 1.28 µM)”, the AUC was 0.741 and the IC50 stood at 499 nM.
For “OVK-18 (ovary, adherent, top dose 1.28 µM)” the same measures were 0.985 and above 1280 nM.
In the case of “OVKATE (ovary, adherent, top dose 1.28 µM)”, the AUC was 0.854 and the IC50 is above 1280 nM.
For “OVMIU (ovary, adherent, top dose 1.28 µM)”, the AUC is 0.761 and the half-inhibitory concentration (IC50) was 562 nM.
On the same counts, the results for “OVTOKO (ovary, adherent, top dose 1.28 µM)” are 0.976 and above 1280 nM.
On the same counts, the results for “P12-ICHIKAWA (T-cell lymphoblastic leukaemia, suspension, top dose 10.24 µM)” are 0.212 and 119 nM.
For “P30-OHK (lymphoblastic leukaemia, suspension, top dose 1.28 µM)” the same measures were 0.427 and 52.4 nM.
As to “P31-FUJ (acute myeloid leukaemia, suspension, top dose 1.28 µM)”, the AUC came out at 0.941 and the IC50 was above 1280 nM.
On the same counts, the results for “P32-ISH (Burkitt lymphoma, suspension, top dose 1.28 µM)” are 0.86 and 670 nM.
On the same counts, the results for “PA-1 (ovary, adherent, top dose 1.28 µM)” are 0.669 and 211 nM.
Regarding “PA-TU-8902 (pancreas, adherent, top dose 1.28 µM)”, the AUC was 0.787 and the IC50 is 663 nM.
Consider “PA-TU-8988T (pancreas, adherent, top dose 1.28 µM)”, for which the AUC turned out to be 0.825 and the IC50 was 771 nM.
On the same counts, the results for “PANC-02-03 (pancreas, adherent, top dose 1.28 µM)” are 0.799 and 758 nM.
On the same counts, the results for “PANC-03-27 (pancreas, adherent, top dose 1.28 µM)” are 0.659 and 215 nM.
On the same counts, the results for “PANC-04-03 (pancreas, adherent, top dose 1.28 µM)” are 0.904 and above 1280 nM.
In the case of “PANC-08-13 (pancreas, adherent, top dose 1.28 µM)”, the AUC was found to be 0.754 and the IC50 turned out to be 545 nM.
For “PANC-10-05 (pancreas, adherent, top dose 1.28 µM)” the same measures were 0.72 and 408 nM.
As to “PC-3 (prostate, adherent, top dose 1.28 µM)”, the AUC stood at 0.827 and the IC50 turned out to be 1020 nM.
For “PC-3 [JPC-3] (lung adenocarcinoma, adherent, top dose 1.28 µM)” the same measures were 0.747 and 526 nM.
For “PC-14 (lung adenocarcinoma, adherent, top dose 1.28 µM)” the same measures were 0.638 and 183 nM.
On the same counts, the results for “PCI-4B (head and neck, adherent, top dose 1.28 µM)” are 0.721 and 325 nM.
On to “PCI-6A (head and neck, adherent, top dose 1.28 µM)”, for which the AUC was 0.717 and the IC50 stood at 323 nM.
“PCI-15A (head and neck, adherent, top dose 1.28 µM)”: the AUC was 0.829 and the IC50 turned out to be 808 nM.
For the cell line “PCI-30 (head and neck, adherent, top dose 1.28 µM)”, the AUC amounted to 0.961 and the IC50 is above 1280 nM.
On to “PCI-38 (head and neck, adherent, top dose 1.28 µM)”, for which the AUC amounted to 0.788 and the IC50 was determined as 565 nM.
For the cell line “PE/CA-PJ15 (head and neck, adherent, top dose 1.28 µM)”, the AUC turned out to be 0.945 and the IC50 was above 1280 nM.
On to “PEO1 (ovary, adherent, top dose 1.28 µM)”, for which the AUC turned out to be 0.987 and the IC50 is above 1280 nM.
With “PF-382 (T-cell lymphoblastic leukaemia, suspension, top dose 10.24 µM)”, the AUC came to 0.132 and the IC50 turned out to be 55 nM.
For “PFSK-1 (medulloblastoma, adherent, top dose 1.28 µM)” the same measures were 0.737 and 401 nM.
As to “PL4 (pancreas, adherent, top dose 1.28 µM)”, the AUC was determined as 0.929 and the IC50 is above 1280 nM.
On the same counts, the results for “PL18 (pancreas, adherent, top dose 1.28 µM)” are 0.84 and 871 nM.
For “PL-21 (acute myeloid leukaemia, suspension, top dose 1.28 µM)” the same measures were 0.578 and 136 nM.
For the cell line “PSN1 (pancreas, adherent, top dose 1.28 µM)”, the AUC worked out at 0.629 and the IC50 was 170 nM.
Consider “QGP-1 (pancreas, adherent, top dose 1.28 µM)”, for which the AUC came to 0.759 and the IC50 worked out at 736 nM.
“QIMR-WIL (acute myeloid leukaemia, suspension, top dose 1.28 µM)”: the AUC was 0.732 and the IC50 amounted to 357 nM.
Regarding “RC-K8 (B-cell lymphoma, suspension, top dose 1.28 µM)”, the AUC came out at 0.963 and the IC50 was above 1280 nM.
